Test results as given in the supplement of paper PMC11369174, “Proteome-scale characterisation of motif-based interactome rewiring by disease mutations” (Molecular Systems Biology, 2024).
Numbering of substitutions follows the chain as printed. Numbers in names are those of the source. The list shows a part of the results. The data scatter; read single values as rough.

T1: EPHA3_Pkinase__P29320_606_947
T1 chain: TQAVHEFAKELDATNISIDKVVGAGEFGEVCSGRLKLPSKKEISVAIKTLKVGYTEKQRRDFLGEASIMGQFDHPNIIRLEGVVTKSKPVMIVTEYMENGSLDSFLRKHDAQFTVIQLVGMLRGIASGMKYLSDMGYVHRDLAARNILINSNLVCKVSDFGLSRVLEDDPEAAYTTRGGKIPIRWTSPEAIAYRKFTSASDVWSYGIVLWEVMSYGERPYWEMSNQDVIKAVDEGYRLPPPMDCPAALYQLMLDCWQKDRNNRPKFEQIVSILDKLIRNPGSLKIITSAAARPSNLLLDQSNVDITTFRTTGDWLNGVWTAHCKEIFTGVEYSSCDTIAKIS

T2: EPHB2_Pkinase__P29323_604_898
T2 chain: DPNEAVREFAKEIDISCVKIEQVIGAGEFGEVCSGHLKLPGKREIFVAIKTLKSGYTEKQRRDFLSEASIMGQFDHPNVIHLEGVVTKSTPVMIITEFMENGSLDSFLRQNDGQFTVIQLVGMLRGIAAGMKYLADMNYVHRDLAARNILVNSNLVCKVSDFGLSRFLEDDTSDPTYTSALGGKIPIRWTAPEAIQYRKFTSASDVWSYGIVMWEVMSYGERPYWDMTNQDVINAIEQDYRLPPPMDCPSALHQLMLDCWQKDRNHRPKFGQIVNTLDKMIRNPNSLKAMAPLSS

T3: PEX14_Pex14__O75381_16_84
T3 chain: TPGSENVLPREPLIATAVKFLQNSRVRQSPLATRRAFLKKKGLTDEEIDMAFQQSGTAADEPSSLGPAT

T4: EPS15_EH__P42566_121_215
T4 chain: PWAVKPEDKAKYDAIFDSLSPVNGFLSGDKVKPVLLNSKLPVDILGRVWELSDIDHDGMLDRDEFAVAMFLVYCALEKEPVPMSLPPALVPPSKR

T5: SIN3A_PAH__Q96ST3_295_383
T5 chain: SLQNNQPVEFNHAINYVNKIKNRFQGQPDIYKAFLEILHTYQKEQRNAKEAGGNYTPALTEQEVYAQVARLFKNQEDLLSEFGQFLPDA

B1: D490N D490N (peptide)
chain: DEVFWFGDFNFRLSGGRTVVNALLCQGLVVDVPALLQHDQL
B2: D490Y D490Y (peptide)
chain: B1 chain with N21Y
B3: T61I T61I (peptide)
chain: SAVGSSAAAPRQPGLMAQMAITAAGVAVGSAVGHTLGHAIT
B4: D282H D282H (peptide)
chain: DTYADALWWGLITLTTIGYGHKYPQTWNGRLLAATFTLIGV
B5: D282N D282N (peptide)
chain: B4 chain with H21N
B6: G281E G281E (peptide)
chain: FDTYADALWWGLITLTTIGYEDKYPQTWNGRLLAATFTLIG
B7: G281R G281R (peptide)
chain: B6 chain with E21R
B8: G281W G281W (peptide)
chain: B6 chain with E21W
B9: I273N I273N (peptide)
chain: AEKGENDHFDTYADALWWGLNTLTTIGYGDKYPQTWNGRLL
B10: I278T I278T (peptide)
chain: NDHFDTYADALWWGLITLTTTGYGDKYPQTWNGRLLAATFT
B11: K283R K283R (peptide)
chain: TYADALWWGLITLTTIGYGDRYPQTWNGRLLAATFTLIGVS
B12: L268F L268F (peptide)
chain: FLVYLAEKGENDHFDTYADAFWWGLITLTTIGYGDKYPQTW
B13: L268P L268P (peptide)
chain: B12 chain with F21P
B14: T274M T274M (peptide)
chain: EKGENDHFDTYADALWWGLIMLTTIGYGDKYPQTWNGRLLA
B15: T277S T277S (peptide)
chain: ENDHFDTYADALWWGLITLTSIGYGDKYPQTWNGRLLAATF
B16: W269L W269L (peptide)
chain: LVYLAEKGENDHFDTYADALLWGLITLTTIGYGDKYPQTWN
B17: W246G W246G (peptide)
chain: FHVTIGHTALSLYTDCPFPKGMHWALIAYAISFIFLFLNFY
B18: I273M I273M (peptide)
chain: B9 chain with N21M
B19: L12H L12H (peptide)
chain: MVSKLSQLQTELLAALLESGHSKEALIQALGE
B20: R321W R321W (peptide)
chain: LVGTLIPPSEDKASKGFFSYWADIFVQNLVPDWRGPDGTFF
B21: R58W R58W (peptide)
chain: RGPRQNSRLGLPLLLMPEEAWLLAEIGAVTLVSAPRPDSRH

Target: T1, EPHA3_Pkinase__P29320_606_947
Experiment: mutation enrichment score (mutant vs wild-type peptide binding to bait); baits are purified protein domains named by gene / domain / UniProt id / residues; peptides come from disordered regions of human proteins; higher = mutation enhances binding relative to wild type
Settings: number of wild-type / mutant comparisons summed (bounds the score): 6; paper call: no_effect; wild-type window: …

Row | Binder | mutation enrichment score
1 | B1 | -2
2 | B2 | -2
3 | B3 | 0

Target: T2, EPHB2_Pkinase__P29323_604_898
Experiment: as above
Settings: number of wild-type / mutant comparisons summed (bounds the score): 6; paper call: no_effect; wild-type window: …

Row | Binder | mutation enrichment score
4 | B1 | -2
5 | B2 | -2
6 | B3 | 0.88
7 | B4 | -1
8 | B5 | -1
9 | B6 | -1
10 | B7 | -1
11 | B8 | -1
12 | B9 | -1
13 | B10 | -1
14 | B11 | -1
15 | B12 | -1
16 | B13 | -1
17 | B14 | -1
18 | B15 | -1
19 | B16 | -1
20 | B17 | -3

The binders below were run against PDCD6IP_Bro__Q8WUM4_1_359 in the same assay as above. Settings: number of wild-type / mutant comparisons summed (bounds the score): 5; paper call: no_effect; wild-type window: ….

Row | Binder | mutation enrichment score
21 | B3 | -1.2
22 | B11 | 1
23 | B12 | 3
24 | B18 | 2

These binders were tested against KPNA4_Arm__O00629_68_487 in the same assay as above. Settings: number of wild-type / mutant comparisons summed (bounds the score): 9; paper call: no_effect; wild-type window: ….
KPNA4_Arm__O00629_68_487, sequence (chain, as listed by the source): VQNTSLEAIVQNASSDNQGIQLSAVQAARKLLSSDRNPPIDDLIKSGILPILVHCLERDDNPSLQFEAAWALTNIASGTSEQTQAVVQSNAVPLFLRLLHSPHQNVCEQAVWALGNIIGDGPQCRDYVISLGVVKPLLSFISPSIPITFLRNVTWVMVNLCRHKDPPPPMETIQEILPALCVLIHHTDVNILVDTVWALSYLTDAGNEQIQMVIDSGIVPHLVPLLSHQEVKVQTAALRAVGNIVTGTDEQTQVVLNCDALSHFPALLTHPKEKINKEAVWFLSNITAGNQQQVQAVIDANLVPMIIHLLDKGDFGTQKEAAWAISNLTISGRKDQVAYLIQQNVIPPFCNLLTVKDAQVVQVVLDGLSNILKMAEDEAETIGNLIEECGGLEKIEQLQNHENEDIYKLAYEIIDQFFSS

Row | Binder | mutation enrichment score
25 | B16 | 1

Target: T2, EPHB2_Pkinase__P29323_604_898
Experiment: as above
Settings: number of wild-type / mutant comparisons summed (bounds the score): 12; paper call: no_effect; wild-type window: …

Row | Binder | mutation enrichment score
26 | B18 | -1
27 | B19 | 3
28 | B20 | 2

What follows are binders tested against Intersectin-1_SH3_2_Q15811_913_971 in the same assay as above. Settings: number of wild-type / mutant comparisons summed (bounds the score): 6; paper call: no_effect; wild-type window: ….

Row | Binder | mutation enrichment score
29 | B18 | 0

Each binder was assayed against RUNX1T1-MYND___Q06455_510_559 in the same assay as above. Settings: number of wild-type / mutant comparisons summed (bounds the score): 12; paper call: no_effect; wild-type window: ….

Row | Binder | mutation enrichment score
30 | B19 | 1

Target: T3, PEX14_Pex14__O75381_16_84
Experiment: as above
Settings: number of wild-type / mutant comparisons summed (bounds the score): 6; paper call: no_effect; wild-type window: …

Row | Binder | mutation enrichment score
31 | B20 | 2

Target: T4, EPS15_EH__P42566_121_215
Experiment: as above
Settings: number of wild-type / mutant comparisons summed (bounds the score): 6; paper call: enhanced; wild-type window: …

Row | Binder | mutation enrichment score
32 | B21 | 6

Target: T3, PEX14_Pex14__O75381_16_84
Experiment: as above
Settings: number of wild-type / mutant comparisons summed (bounds the score): 12; paper call: enhanced; wild-type window: …

Row | Binder | mutation enrichment score
33 | B21 | 12

The binders below were run against PTBP1_RRM_2_P26599_157_285 in the same assay as above. Settings: number of wild-type / mutant comparisons summed (bounds the score): 6; paper call: no_effect; wild-type window: ….

Row | Binder | mutation enrichment score
34 | B21 | -3

Target: T5, SIN3A_PAH__Q96ST3_295_383
Experiment: as above
Settings: number of wild-type / mutant comparisons summed (bounds the score): 10; paper call: enhanced; wild-type window: …

Row | Binder | mutation enrichment score
35 | B21 | 6
